The results in this text go back to paper PMC4336329 (PLoS ONE, 2015).

Among all 310,000 compounds or so, about 2,200 (0.71%) showed an effect of 50% or more. The effect is printed as a negative number. The list shows a part of the results.

Sequence of human ether-à-go-go-related gene (hERG) potassium channel (Q12809 whole entry, looked up): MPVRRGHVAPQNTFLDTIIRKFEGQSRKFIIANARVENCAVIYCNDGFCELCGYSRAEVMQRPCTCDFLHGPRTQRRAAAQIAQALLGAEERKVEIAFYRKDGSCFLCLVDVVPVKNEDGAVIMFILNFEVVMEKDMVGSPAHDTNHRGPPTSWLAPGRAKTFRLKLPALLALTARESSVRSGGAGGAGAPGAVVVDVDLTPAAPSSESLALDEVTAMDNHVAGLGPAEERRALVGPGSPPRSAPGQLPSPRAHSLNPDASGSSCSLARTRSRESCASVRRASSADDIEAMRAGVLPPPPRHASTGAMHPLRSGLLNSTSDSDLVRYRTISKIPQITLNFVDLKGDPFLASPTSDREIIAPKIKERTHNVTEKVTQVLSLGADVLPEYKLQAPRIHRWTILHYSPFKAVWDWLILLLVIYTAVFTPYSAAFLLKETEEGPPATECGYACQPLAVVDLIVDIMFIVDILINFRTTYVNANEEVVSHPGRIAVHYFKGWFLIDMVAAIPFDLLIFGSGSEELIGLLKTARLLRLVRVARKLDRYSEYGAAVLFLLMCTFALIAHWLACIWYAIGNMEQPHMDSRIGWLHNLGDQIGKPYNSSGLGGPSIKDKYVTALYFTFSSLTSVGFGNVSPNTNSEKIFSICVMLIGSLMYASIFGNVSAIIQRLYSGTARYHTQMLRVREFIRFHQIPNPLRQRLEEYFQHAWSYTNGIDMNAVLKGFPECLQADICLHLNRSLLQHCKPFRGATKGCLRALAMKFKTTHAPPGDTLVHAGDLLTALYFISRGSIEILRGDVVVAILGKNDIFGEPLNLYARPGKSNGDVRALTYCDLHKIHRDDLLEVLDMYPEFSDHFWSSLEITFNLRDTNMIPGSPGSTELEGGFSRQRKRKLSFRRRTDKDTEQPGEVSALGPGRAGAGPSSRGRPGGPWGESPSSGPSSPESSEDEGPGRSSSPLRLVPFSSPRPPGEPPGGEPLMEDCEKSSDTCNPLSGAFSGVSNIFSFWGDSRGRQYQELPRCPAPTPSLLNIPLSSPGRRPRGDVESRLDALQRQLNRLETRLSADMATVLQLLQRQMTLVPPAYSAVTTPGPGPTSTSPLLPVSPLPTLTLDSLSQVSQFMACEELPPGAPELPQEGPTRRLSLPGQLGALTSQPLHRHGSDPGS

This experiment concerns the target human ether-à-go-go-related gene (hERG) potassium channel (human, UniProt Q12809). Put plainly: primary screen, population patch clamp on CHO cells stably expressing hERG.
For `O=C(O)CNC(=O)/C(=C/c1ccco1)NC(=O)/C=C/c1ccccc1`, the “hERG current change (%, negative = inhibition) at 1uM” value is 12.9%. For `OCC(CO)(CO)n1cnnn1` the value was 11.2%; for `C[C@H](NC(=O)[C@H](Cc1ccccc1)n1c(=O)[nH]c2ccccc2c1=O)C(=O)N1CCC[C@H]1C(=O)O`, 8.85%; for `C/C(=C\C(=O)Nc1cscc1C)C(=O)O`, 10.3%. On to `Cc1ccc(N(CC(=O)N2CCN(c3ccc(F)cc3)CC2)S(=O)(=O)c2c(C)nn(C)c2C)cc1`, for which the “hERG current change (%, negative = inhibition) at 1uM” value was -13.8%. For `O=C(CSc1nc2ccccc2c(=O)n1Cc1ccccc1)Nc1ccc(Br)cc1C(=O)O` the value was 13.5%; for `O=C(CCCN1C(=O)c2cccc3cccc(c23)C1=O)N1CCN(c2ccccc2O)CC1`, 0.696%; for `Cc1ccc(C)c(C(=O)COC(=O)c2ccc(C)c(S(=O)(=O)N3CCOCC3)c2)c1`, 4.65%. For `CCN(C(=O)c1c(N)cnn1C)c1ccccc1` the value was 1.72%; for `CC1CCN(C(=O)NC(=O)c2ccc(Cl)cc2)CC1`, 12.4%; for `Cc1ccc(C)c(NC(=S)NCc2cccs2)c1`, -1.6%.

Turning to `Cc1cccc(Nc2n[nH]c(C)c2[N+](=O)[O-])c1`, the “hERG current change (%, negative = inhibition) at 1uM” value was 12%. Turning to `COc1ccc(OC)c(/C=C/c2c([N+](=O)[O-])c(=O)n(C)c(=O)n2C)c1`, the “hERG current change (%, negative = inhibition) at 1uM” value worked out at 4.85%. As for `COc1ccc2ccccc2c1CNC(C)c1ccccc1.O=C(O)C(=O)O` (stereo not drawn), the “hERG current change (%, negative = inhibition) at 1uM” value is reported as 8.43%.

For `Cc1cccc(C)c1NC(=O)CCS(=O)(=O)c1ccc(Br)cc1`, the “hERG current change (%, negative = inhibition) at 1uM” value came out at 21.6%.

Turning to `CCn1ncc(/C=N\NC(=O)c2ccc3c(c2)c(C)c(C)n3Cc2ccccc2)c1C`, the “hERG current change (%, negative = inhibition) at 1uM” value was 5.11%.

`Cc1cc2oc(=O)cc(CSc3nc(N)cc(N)n3)c2cc1C(C)C`: the “hERG current change (%, negative = inhibition) at 1uM” value came to 8.33%. For `COC(=O)[C@H](C)NC(=O)Nc1ccc(Oc2ccccc2)cc1` the value was 7.78%; for `Cc1ccc(Nc2nc(CSc3nnc(-c4ccccc4)n3C)cs2)cc1`, 6.99%. For `CCc1ccc(NC(=S)Nc2cccc(OC)c2)cc1` the value was 14.1%; for `Cc1ccc(-n2c(C3CC3c3ccc(Cl)cc3)n[nH]c2=S)cc1` (stereo not drawn), 10.6%. For `COc1ccc(N2C(=O)/C(=C\c3ccco3)N=C2SCC(=O)NC(C)C)cc1Cl` the value was 5.53%; for `COc1ccc(C(C(=O)NC(C)(C)C)N(CC2CCCO2)C(=O)CCC(=O)Nc2cc(C)on2)cc1` (stereo not drawn), 14.1%; for `Cc1nn(C)c(C)c1S(=O)(=O)N1CCC(CO)(CC2CCCCO2)CC1` (stereo not drawn), -7.4%. Take `CCOc1cc(C(=O)N=c2sccn2C)ccc1OC(F)F`: the “hERG current change (%, negative = inhibition) at 1uM” value stood at 13.9%. Take `Cc1ccc(C(=O)NCCSCc2ccc(Cl)cc2Cl)cc1[N+](=O)[O-]`: the “hERG current change (%, negative = inhibition) at 1uM” value came out at 11.9%. For `COc1ccc(/C=C(\C#N)C(=O)NCCc2ccccc2)cc1OCc1ccccc1` the value was -1.12%.

On to `CC(OC(=O)CNC(=O)c1ccc(Br)cc1)C(=O)NC1CCCCC1C` (stereo not drawn), for which the “hERG current change (%, negative = inhibition) at 1uM” value worked out at 3.25%. For `CC(C)CC(=O)Nc1ccccc1Oc1ccccc1` the value was 8.11%; for `CCOc1cccc(-c2cc(C(=O)NN)[nH]n2)c1`, 11%; for `COC(=O)c1c(NC(=O)CCN2CCOCC2)sc2c1CCCC2`, -5.47%. For the molecule `COCCNC(=O)c1ccc2c3n(nc2c1)-c1ccc(C)cc1CO3`, the “hERG current change (%, negative = inhibition) at 1uM” value is -0.831%. For `Cc1ccc(C)c2nc(SCC(=O)N3CCCc4ccccc43)c(C#N)cc12` the value was 8.95%. For `S=C(NCc1ccc(Cl)cc1Cl)NC1CCCCC1` the value was 18.5%; for `CCC(C(=O)N1CCN(C(=O)c2ccco2)CC1)n1sc2ccccc2c1=O` (stereo not drawn), 1.67%; for `COc1ccc(Cl)cc1C(=O)NCCCN1CCOCC1`, 16.2%.

`NC(=O)C1CCN(CC(=O)Nc2nc(-c3ccccc3)cs2)CC1`: the “hERG current change (%, negative = inhibition) at 1uM” value is reported as 7.81%.

Regarding `COc1ccc(N2CCN(S(=O)(=O)CCNC(=O)C3CC(=O)N(c4ccccc4)C3)CC2)cc1` (stereo not drawn), the “hERG current change (%, negative = inhibition) at 1uM” value is 18.3%. For `COC(=O)c1ccc(S(=O)(=O)N(CCO)Cc2ccccc2)n1C` the value was 14.4%; for `CCC1(CC)N=C(c2ccccc2)C(=S)N1`, 5.62%; for `O=C(CCN1C(=O)/C(=C/c2cccc(Br)c2)SC1=S)NNC(=O)c1cccnc1`, 14.1%. For `Cc1sc2ncnc(N3CCC(C(=O)Nc4cc(Cl)ccc4Cl)CC3)c2c1C` the value was 9.99%; for `CN(C)S(=O)(=O)N1CCC(Oc2cccc(C(=O)N3CCSCC3)c2)CC1`, 4.68%.

As for `CCCCC[C@H](O)/C=C/[C@H]1CCC(=O)[C@@H]1CCCCCCC(=O)N1CCCCC1CO` (stereo partly drawn), the “hERG current change (%, negative = inhibition) at 1uM” value turned out to be 12.9%. Turning to `O=C(Nc1cccc(F)c1)C1CCCN(S(=O)(=O)c2cccc3cccnc23)C1` (stereo not drawn), the “hERG current change (%, negative = inhibition) at 1uM” value was 18.9%. For `Cn1ncc(Oc2ccc([N+](=O)[O-])cc2)c(Cl)c1=O` the value was -6.15%. As to `Cc1cccc(N2CC(C(=O)Nc3nnc(SCc4cccnc4)s3)CC2=O)c1` (stereo not drawn), the “hERG current change (%, negative = inhibition) at 1uM” value is given as -1.45%. For `COc1ccc(NCc2nnc(SCC#N)n2-c2ccccc2OC)cc1` the value was 8.09%.

On to `CSc1nc(C)c(Cl)c(C)c1C#N`, for which the “hERG current change (%, negative = inhibition) at 1uM” value is reported as -2.08%.

For the molecule `NC(=O)C1CCN(C(=O)c2ccc(Oc3cc(Cl)cc(Cl)c3)o2)CC1`, the “hERG current change (%, negative = inhibition) at 1uM” value is 11%.

On to `CCOC(=O)N1CCN(C(=O)c2ccc(N(Cc3ccc(C)cc3)S(C)(=O)=O)cc2)CC1`, for which the “hERG current change (%, negative = inhibition) at 1uM” value is -7.28%. Consider `O=S(=O)(c1ccc(-c2ccon2)s1)N1CCN(c2ccncc2)CC1`, for which the “hERG current change (%, negative = inhibition) at 1uM” value worked out at 5.22%. Take `Cc1ccccc1NC(=O)CSc1nnc(-c2ccco2)c(-c2ccco2)n1`: the “hERG current change (%, negative = inhibition) at 1uM” value is given as 1.63%.

`N#C/C(=N/O)c1nc(-c2ccc(F)cc2)cs1`: the “hERG current change (%, negative = inhibition) at 1uM” value is 10.4%. For `COc1cc2c(cc1OC)CN(C(=O)c1cc(Cl)nc(Cl)c1)CC2` the value was 14.1%. For `CCCSCCCNC(=O)c1cc2c(s1)CS(=O)(=O)C2` the value was 11%.

On to `O=C(O)/C=C/c1cn(Cc2ccccc2)nc1-c1ccccc1`, for which the “hERG current change (%, negative = inhibition) at 1uM” value was determined as 8.95%.
